Measured values taken from the supplement of paper PMC11417369.
The list shows a part of the results.

The sequences below were run on PfSIP2 AP2 domain 1 (GST-tagged) (assay: gcPBM binding intensity (ln(normalized median fluorescence intensity)); higher = stronger DNA binding).
How it was run: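 Binding intensity is the highest Masliner-normalised natural-log median intensity over replicate spots in either probe orientation. To obtain it, GST-tagged P. falciparum DNA-binding domains made in E. coli were incubated for 1 h on an Agilent 4 × 180k array of primer-extended double-stranded 36-bp intergenic genomic probes plus negative controls. Detection used Alexa488 anti-GST antibody with scanning at 488 nm.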

Sequence	gcPBM binding intensity (ln)
ATTTATTTGAAGAATTGTACTAAATTATATAGCGGT [XGTACX_site4998]	7.31
TATATCAAAATACATACACACATTTGTATTTACATT [CACACA_site5485]	6.97
ATTTTAATTTGTTATACACACACAAAAAAAATTATA [CACACA_site9306]	7.08
TTTTTTTTTAATCATGCACACTGTTAAAAGAATAAA [CACACA_site4817]	8.57
ACTGTCATTTATTGTAGTACGTCAATTTATTACATT [XGTACX_site2749]	7.33
TGTTACAAAAAATAATGTACTTAATATATATATATA [XGTACX_site1016]	8.7
TATCTTCATTTTTTTGGTACGCACGCAAATATGGCT [XGTACX_site3107]	7.32
TGAATATTCATGTGTGTGCGCATGTTGTTAGACCAT [GTGCAC_site9869]	7.51
TGTTTTCTTGATTATTGTACTTTAATTAGTAATATG [XGTACX_site8674]	7.12
TAAATACATTTATGTACACACACATAGATGTATATT [CACACA_site5618]	7
AAAAATATTATAAGCACACATATATATATATATATA [CACACA_site2458]	9.83
TATAATATGTTATATACACACATTATAAAATACACA [CACACA_site6742]	7.2
TAATAATAAATAAAATGTACATATGAACAAATAAGT [XGTACX_site6710]	7.85
AAAAAAAAAATTAATTGTACTAAAAAAATATTATAT [XGTACX_site8903]	6.98
TATAAATTTTGTTTAGCACACACACCGACATACATA [CACACA_site9033]	7.28
ATGTTGTACAGACACACACACAAAAAAAAAATAAAA [CACACA_site7184]	7.31
ATATATATATATATATGTACATACATACAATCATAT [XGTACX_site6410]	9.43
CTTACATATTACATATGTACATATACACCTTATGTC [XGTACX_site4679]	7.14
TATAATAGCTTCTTTACACACACCATTTTTTTTTTT [CACACA_site1456]	6.89

Sequence	gcPBM binding intensity (ln)
ATATATTTTTAATTTGCATGTAGTAAAGCCTTAAAT [TGCATGCA_site593]	6.87
CATCAAGTGAATTGTTGTACTTTACATTGTTTTTAT [XGTACX_site7261]	6.97
TTTAATTTTTATATAACACACATATTGGAATTATGT [CACACA_site734]	6.89
TTAAATGTGAAGTGAATACACACCTAATAAATATAA [CACACA_site3194]	6.73
TTATGTATTACCTGCCGTACTTCTAAAATAATTAAA [XGTACX_site1716]	7.49
ATATATTTACTTAATACACACAAAAAAAAAAAAAAA [CACACA_site3657]	7.03
TAAAAAAGTTATATTACACACTTTATTGGTTAACTT [CACACA_site653]	6.53
ACATATAAATTATATACACACAATAATATATATATA [CACACA_site1384]	8.84
ATAATGTTTCTTTCAACACACAAAAAATGAACCCAT [CACACA_site4947]	7.38
TATTTATAAAAAAAATGTACATTTATGTATAAGCTA [XGTACX_site3266]	6.99
AATATCAATATTATATGTACTTATAATTTCAATGTA [XGTACX_site2423]	6.97
TAAATTTATTAATCAAGTACAAAATAAATTTTTATA [XGTACX_site2745]	6.8
TATATATAGAAACACACACACACATATATATATATA [CACACA_site4116]	9.25
AAAATTTAATATAATGCACACATAAAAAAAAAATCA [CACACA_site7882]	7.33
ATCATGTTATATATATGTACTAATAATATAATATAA [XGTACX_site1326]	7.09
ATATATATATATATATGGTAAAGTAAAAGGAAATAC [XGTACX_negctrl_site45]	9.62
TACTAACTTTTTAAAAGTACAGAACCATAACCATAA [XGTACX_site7182]	7.04
GAATAATCTAGAAACACACAAACACGACAAAAGAAA [CACACA_site4135]	7.01
AGTTTATATTATTAAAGTACATATATATATTCTTAA [XGTACX_site3164]	7

Sequence	gcPBM binding intensity (ln)
AGTCGAATGATGTACACACATACAAAACATTTATGC [CACACA_site4022]	6.93
TATATATTATAAAAGAGTACAGAAAGAAAAAAAAAT [XGTACX_site8305]	7.47
ATATTCAATATATTATGTACACATATATGAGGATAT [XGTACX_site7019]	7.15
AAACTTTTTTTAAAAACACACATATATATTTATATA [CACACA_site4092]	6.97
AGTATATTAATATAATGTACAAACGTTTATTTTGTA [XGTACX_site5980]	6.89
GTTTAAAATCTTTGCACACATATAAATAAATATATT [CACACA_site2555]	7.6
AAATATCTACATATTTGTACATATTTATACATATTT [XGTACX_site6300]	6.93
AGCAACCCCCTAGCTACACACATATAGATATAAATA [CACACA_site6577]	7.65
GAAAAGTAGACAATATGTACATATAGTATTTATAAA [XGTACX_site878]	6.89
ATATTTTCAGTTCTCCATTATGTTCCCATTATTTTT [CACACA_negctrl_site990]	7.25
CATGAATATTTTAATGTGCACATTTATCATTATATG	8.69
CCAAACTAAATGTACACACATACATAAATATAAATA [CACACA_site1141]	7.27
ATGTAATAAATATACACACACAAATATATATATATA [CACACA_site2395]	9.5
ACCTATGTATATTATACACACTCCAAACTATTCTTT [CACACA_site6939]	7.25
ATATTATATAACTTTTGTACGAACTATTTTATATAT [XGTACX_site6]	6.97
TTTAGAGAAGTCAAGTGTACATATAAAATAATTCAC [XGTACX_site4997]	7.01
AAAAAAAAATATATATGTACATATGTATAATAAAAA [XGTACX_site2110]	7.08
AATGAAGACTTTTTTACACACTTCATATATTATATA [CACACA_site2034]	6.74
TATTTATTTATATATGCATGCTAATAATTATAACAT [TGCATGCA_site988]	6.98
